Hit rate of the full screen: of about 360,000 compounds, about 270 (0.075%) were called active. This list was built around the results that the source calls inconclusive (neither active nor inactive); the mix of calls is not that of the screen. The call rests on the fitted dose curve; in most records, active means well fitted activation curve with a large enough effect; inconclusive means small, poorly fitted or top-dose-only effect; inactive means no such curve, though single readings can be large or run the other way. Where the call is inconclusive, the potency comes from a doubtful curve fit.
Biological target: Rap guanine nucleotide exchange factor 3 (Homo sapiens) (UniProt O95398)
Chain of UniProt O95398 (O95398 whole entry, looked up): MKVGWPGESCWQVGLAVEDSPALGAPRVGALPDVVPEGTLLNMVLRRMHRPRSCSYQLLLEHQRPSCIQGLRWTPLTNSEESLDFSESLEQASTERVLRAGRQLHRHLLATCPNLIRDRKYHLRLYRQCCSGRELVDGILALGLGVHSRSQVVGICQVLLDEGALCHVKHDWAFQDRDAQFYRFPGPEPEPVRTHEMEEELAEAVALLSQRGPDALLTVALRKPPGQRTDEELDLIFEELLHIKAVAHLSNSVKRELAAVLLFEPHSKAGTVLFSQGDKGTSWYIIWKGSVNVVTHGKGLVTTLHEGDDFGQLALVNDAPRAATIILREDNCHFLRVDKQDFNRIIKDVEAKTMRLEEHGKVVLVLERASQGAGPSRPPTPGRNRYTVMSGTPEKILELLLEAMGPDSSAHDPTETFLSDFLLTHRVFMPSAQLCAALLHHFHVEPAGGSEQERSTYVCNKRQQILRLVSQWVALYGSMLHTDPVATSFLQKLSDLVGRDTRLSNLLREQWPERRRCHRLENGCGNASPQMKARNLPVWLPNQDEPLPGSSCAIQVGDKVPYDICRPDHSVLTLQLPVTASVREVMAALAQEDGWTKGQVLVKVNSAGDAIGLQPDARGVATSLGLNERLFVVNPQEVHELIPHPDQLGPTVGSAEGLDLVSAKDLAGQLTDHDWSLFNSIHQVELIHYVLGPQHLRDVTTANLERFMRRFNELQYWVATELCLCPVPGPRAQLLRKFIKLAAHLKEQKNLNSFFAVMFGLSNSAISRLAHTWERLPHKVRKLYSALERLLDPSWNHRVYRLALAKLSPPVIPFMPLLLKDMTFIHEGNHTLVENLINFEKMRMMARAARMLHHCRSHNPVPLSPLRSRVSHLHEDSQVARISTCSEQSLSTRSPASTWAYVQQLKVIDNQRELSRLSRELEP
Experiment: qHTS for Agonist of cAMP-regulated guanine nucleotide exchange factor 3 (EPAC1): primary screen; further: nearly all actives have a fitted effect of over 60% in size
Details: biochemical assay; series mostly up to 154 µM
Outline: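 EPAC1 100 nM, Rap1B–BODIPY-GDP 250 nM, unlabeled GDP 50 uM; compound titration; 5 min RT; kinetic read ex480/em540 at 5-min intervals ×30 min; data normalized to 6.5 mM cAMP agonist control.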
Potency means the concentration at half of the fitted maximal effect; tags describe the fitted curve by direction and shape.

Potency, inactive:
CCN1C(=O)/C(=C/C=C2/Sc3ccccc3N2CCO)SC1=S, Cc1nc2c(C(=O)NCc3ccc(F)cc3)c[nH]n2c(=O)c1Cl, Cc1cc(C)nc(N/N=C/c2ccccc2OCc2ccc(Br)cc2)n1, COc1ccc(-c2nc3ccc(C)cn3c2Cc2ccccc2)cc1OC, Cc1cccc(NNC(=S)Nc2ccccc2)c1, O=C1O[C@@H](c2ccccc2)C[C@@H](O)[C@H](O)CCCc2ccccc21, CC(NC(=O)Nc1ccc(O)cc1)(C(F)(F)F)C(F)(F)F, O=C(NC(=S)Nc1ccc(N2CCOCC2)cc1)c1cccc(Cl)c1Cl, O=c1[nH][nH]c(=O)c2c(NS(=O)(=O)c3ccccc3)cccc12, CN(C)C1=NCCN1CCC1CCCC1, O=C(N/N=C/c1cc([N+](=O)[O-])ccc1Cl)c1cnccn1, COc1ccc(OCCCSc2ncccn2)cc1, CCn1c2ccccc2c2cc(NC(=O)c3ccc(Br)o3)ccc21, COc1ccc(S(=O)(=O)N2CCN(C(=O)c3cccs3)CC2)cc1, Cc1cc(C)c2c(=O)n(CC(=O)Nc3cccc(Cl)c3C)sc2n1, Oc1ccccc1-c1nnc(COc2ccccc2)o1, N#C/C(=C\C1=C(N2CCOCC2)C(=C/c2cccc([N+](=O)[O-])c2)/CC1)C(=O)Nc1ccccc1F, O=C(Nc1cc(S(=O)(=O)N2CCOCC2)ccc1N1CCCC1)c1ccc(F)cc1, CCN1CCc2nc3ccccc3c(C(=O)Nc3ccc(NC(C)=O)cc3)c2C1, O=C(N/N=C/c1cc(Cl)cc(Cl)c1O)c1ccncc1, CCOc1ccc(S(=O)(=O)N/N=C(\C)c2ccc(Cl)c(Cl)c2Cl)cc1, CCOC(=O)N1CCN(C2=C(NS(=O)(=O)c3ccc(C)cc3)C(=O)c3ccccc3C2=O)CC1, Cc1nn(CCc2nn[nH]n2)c2nc(C(F)(F)F)cc(C(F)(F)F)c12, COc1ccccc1CNC(=O)Cc1ccc(OC)c(OC)c1, Cc1ccsc1C(=O)OCc1nnc(-c2ccccc2)o1

Potency, inconclusive:
COc1cc(OC)nc(Oc2ccccc2C(=O)Oc2ccccc2Cl)n1 100 µM [activator, single point], Cc1ccc(CNC(=O)C(=O)NCCC2CCCCN2S(=O)(=O)c2cccs2)cc1 (configuration not stated) 63.1 µM [activator, partial curve, poor fit], CCCCOc1ccc(C2C3CN(C(=O)OCC)CC=C3C(C#N)=C(N)C2(C#N)C#N)cc1OC (configuration not stated) 112 µM [activator, partial curve], O=C(NCCN1CCC(n2c(=O)[nH]c3ccccc32)CC1)c1c(F)cccc1F 126 µM [activator, single point], Cc1ccc(Cn2ccc(-c3cnc(-c4ccccc4)s3)n2)cc1 112 µM [activator, single point], COC(=O)CN1C(=S)N(c2ccc(OC)cc2)C(=O)/C1=C/c1ccc(N2CCOCC2)cc1 89.1 µM [activator, partial curve], CN(C)c1ccc(C(=O)OCC(=O)Nc2ccc(S(N)(=O)=O)cc2)cc1 50.1 µM [activator, full curve], CN(CC(=O)Nc1c(Cl)cccc1Cl)C(=O)c1cccc(S(=O)(=O)NCc2ccccc2)c1 28.2 µM [activator, single point], CCOC1(/N=C(\C)NS(=O)(=O)c2ccc(Cl)cc2)C(C)=CC(=O)C=C1C 126 µM [activator, single point], COc1ccc2c(c1)CC/C(=C\Nc1ccc3c(c1)OCO3)C2=O 79.4 µM [activator, partial curve], CCOP1(=O)OCC2OC(n3cnc4c(N)ncnc43)C(O)C2O1 (configuration not stated) 100 µM [activator, partial curve], Cc1nn(-c2ccccc2)c(C)c1NC(=O)COC(=O)Cc1cccc(C(F)(F)F)c1 112 µM [activator, partial curve, poor fit], COc1ccc(NC(=O)COC(=O)CN2C(=O)c3ccccc3C2=O)cc1 126 µM [activator, single point], CC1CC(C)CN(C(=O)COC(=O)CNC(=O)C23CC4CC(CC(C4)C2)C3)C1 (configuration not stated) 39.8 µM [activator, single point], O=C(N/N=C/c1ccc(-c2cccc(C(F)(F)F)c2)o1)c1ccccc1Br 112 µM [activator, partial curve], Cc1ccc2nc(/C(C#N)=C\c3ccc(N4CCOCC4)o3)[nH]c2c1 89.1 µM [activator, partial curve], O=S(=O)(Nc1ccc(Cc2ccncc2)cc1)c1ccc(Cl)c(Cl)c1 89.1 µM [activator, partial curve], Nc1cccc2c(O)cc(S(=O)(=O)O)cc12 100 µM [activator, partial curve], Cn1c(SCc2c(Cl)cccc2Cl)nnc1-c1ccc2nonc2c1 112 µM [activator, single point], ClC(Cl)(Cl)c1nc2ccccc2n2nncc12 112 µM [activator, partial curve], Cc1ccc(C)c(S(=O)(=O)N2CCN(C(=O)CCNC(=O)c3ccc(Br)cc3)CC2)c1 22.4 µM [activator, full curve, poor fit], O=C(Nc1nc2c(s1)CN(Cc1ccccc1)CC2)c1cccc(S(=O)(=O)N2CCc3ccccc32)c1 112 µM [activator, partial curve], COc1cccc(/C=N/Nc2ccc(S(=O)(=O)Nc3ccccc3C(=O)O)cc2[N+](=O)[O-])c1O 89.1 µM [activator, partial curve], Clc1cccc(-c2nc(NCc3cccnc3)c3ccccc3n2)c1 89.1 µM [activator, partial curve], COc1ccc(S(=O)(=O)N2CCCCCC2)cc1C(=O)N1CCCC(C(F)(F)F)C1 (configuration not stated) 4.47 µM [activator, full curve, poor fit], COc1ccccc1CCC(=O)OCC(=O)Nc1c(C)nn(-c2ccccc2)c1C 50.1 µM [activator, single point], CC(C)CN(C(=O)C1CCCCC1)C1CCS(=O)(=O)C1 (configuration not stated) 12.6 µM [activator, full curve], Cc1ccccc1Nc1nc(N)nc(COC(=O)[C@@H](NC(=O)c2ccccc2Cl)C(C)C)n1 35.5 µM [activator, full curve, poor fit], CCCCCN(C(=O)CCC(=O)OCc1ccc(C(C)C)cc1)c1c(N)n(CCCC)c(=O)[nH]c1=O 112 µM [activator, single point], CC(=NNC(=O)c1ccncc1)c1ccc2ccccc2c1O 44.7 µM [activator, partial curve], CCOc1cc(S(=O)(=O)Nc2ccc(CC)cc2)ccc1Cl 89.1 µM [activator, partial curve], Cc1ccc(S(=O)(=O)N2CCN(CC(=O)Nc3ccccc3C(=O)NC3CC3)CC2)cc1 50.1 µM [activator, single point], CCOC(=O)c1c(N)sc2c(OCC)c(Br)ccc12 112 µM [activator, single point], N#CCC(CNc1ncc(C(F)(F)F)cc1Cl)OC(=O)c1ccc(Cl)cc1 (configuration not stated) 112 µM [activator, partial curve], CN(CC(=O)Nc1ccccc1Br)C(=O)CCSc1ccc(F)cc1 56.2 µM [activator, full curve], CC(=O)N1CCN(c2cc(N3CCc4ccccc4C3)c(F)cc2[N+](=O)[O-])CC1 100 µM [activator, partial curve], COc1ccc2nc(N3CCCC3)c(C#N)cc2c1 89.1 µM [activator, partial curve], CCOC(=O)C(=Cc1ccc(N(C)C)cc1)C(=O)c1ccccc1 28.2 µM [activator, full curve], O=S(=O)(c1cc(C(F)(F)F)ccc1Cl)N1CCN(c2ncnc3ccccc23)CC1 50.1 µM [activator, single point], CC1(c2ccccc2Cl)NC(=O)N(CC(=O)Nc2ccc(N3CCCCC3)cc2)C1=O (configuration not stated) 89.1 µM [activator, partial curve]

Potency, active:
c1ccc(-c2cnn3c(-c4ccccc4)c(-c4ccccc4)nc3n2)cc1 12.6 µM, O=c1oc2cc(O)ccc2cc1-c1nc2ccccc2o1 63.1 µM, Cc1ccc(NS(=O)(=O)c2ccc(C(=O)N3CC(C)CC(C)C3)cc2)cc1 (configuration not stated) 100 µM, COc1ccc(NC(=O)NS(=O)(=O)c2ccc(C)cc2)cn1 100 µM, Cc1ccc2[nH]cc(/C=C/c3cc[n+](C)cc3)c2c1 100 µM, CC1CCN(c2ccc3c(c2)S(=O)(=O)c2cccc(C(=O)NCc4cccc(F)c4)c2C3=O)CC1 100 µM, COc1cccc(NC(=O)c2csc3c2CCCC3)c1 100 µM
